The record followed here is PubChem BioAssay AID1240 (Sanford-Burnham Center for Chemical Genomics, 2008).

Several values for one entry are separate records, joined by “and”; a condition that tells them apart may be missing. Equal entries are not always repeated. Out of some 50,000 compounds screened, about 800 (1.6%) showed an effect of 50% or more. The list shows a part of the results.

This assay deals with Bcl-2-like protein 10 (Homo sapiens) (UniProt Q9HD36). The assay can be described thus: Phenotype converters, Bcl-B/TR3 peptide binding displacement, primary biochemical FP (AID 1240).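 Also: 0% = Bcl-B with tracer peptide and DMSO and 100% = tracer peptide lacking Bcl-B.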 The conditions noted are these: GST-Bcl-B / FITC-TR3 peptide fluorescence polarization; stronger effect = higher value; compound at 3.75 mg/L. (Fluorescence polarisation rises when a labelled molecule tumbles more slowly, as on binding a larger partner.)
Chain of UniProt Q9HD36 (Q9HD36 whole entry, looked up): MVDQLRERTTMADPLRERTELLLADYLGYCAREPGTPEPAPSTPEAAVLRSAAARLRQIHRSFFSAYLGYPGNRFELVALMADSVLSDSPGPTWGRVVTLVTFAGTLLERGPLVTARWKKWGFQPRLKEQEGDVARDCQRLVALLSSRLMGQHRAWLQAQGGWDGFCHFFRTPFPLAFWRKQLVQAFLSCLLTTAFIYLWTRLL
As for `CCCc1nc2ccccc2n1C(=O)c1ccccc1C(=O)O`, the displacement was -9.2%. The value for `O=C(/C=C/c1ccccc1)NC(=S)Nc1ccc2ccccc2c1` was -0.8%; that for `CC(=O)Nc1ccc(NC(=O)CN2CCCCC2)cc1` was -1%; that for `Cc1ccc(-c2nnc3s/c(=C\c4ccccc4Cl)c(=O)n23)cc1` was 30.3%. The same measure for `COc1cccc(OCC(=O)NCc2ccncc2)c1`: 14.1%; for `COc1cc(Br)c(/C=C2\C(=O)N(c3cccc(C(=O)O)c3)N=C2C)cc1OC`: 0.5%.

As for `Cn1c(=O)c([N+](=O)[O-])c(-n2ccnc2)c2ccccc21`, the displacement was -4.2%. The value for `COC(=O)c1cccc(N2CCCC2=O)c1` was -8.6%; that for `Cc1n(CCCCS(=O)(=O)[O-])c2cc(Cl)c(Cl)cc2[n+]1C` was 19.4%. The value for `Cc1ccc(C)c(OCCCCCCn2ccnc2)c1` was 7.9%; that for `COc1ccc(Br)cc1/C=C\C(=O)Nc1cc(C(F)(F)F)ccc1Cl` was 1.8%. The value for `CC1=C(C(=O)OCC2CCCO2)C(c2ccc(Cl)c(Cl)c2)NC(=O)N1` (centres undefined) was -0.4%; that for `Cc1ccccc1C(=O)NCC1CCCO1` (centres undefined) was 0.7%; that for `COc1ccccc1NC(=O)c1c(NC(=O)c2ccco2)sc2c1CCCC2` was 6.4%.

In the case of `CCOc1ccc(N(CC(=O)Nc2cccc3cccnc23)S(=O)(=O)c2ccccc2)cc1`, the displacement was -39.5%. Consider `CCOC(=O)C1=C(C)N=c2s/c(=C\c3cccs3)c(=O)n2C1c1cccc(OC)c1` (centres undefined), for which the displacement came out at 12.9%. As for `Cc1cccc(NC(=O)c2ccccc2C(F)(F)F)c1C`, the displacement was 16.5%. The value for `COc1ccc(OC)c(NC(=O)c2ccc(C(=O)O)cc2C(=O)O)c1` was 13.1%; that for `O=C(Nc1cccc2nsnc12)c1ccco1` was 4%. The value for `CCOC(=O)c1c(NC(=O)c2c(-c3ccccc3Cl)noc2C)sc2c1CCCC2` was -5.8%. The same measure for `CC12CC3CC(C)(C1)CC(CNC(=O)COc1ccccc1)(C3)C2`: 7.8%; for `CC(=O)n1cc(Nc2ccccc2C(=O)O)c2ccccc21`: -3%. As to `Cc1cc(Cl)cc(C)c1OCCCCCN1CCOCC1`, the displacement came out at 3.3%. On to `COc1ccc(C2CC(C(F)(F)F)n3nc(C(=O)N4CCN(C(=O)c5ccccc5)CC4)c(Cl)c3N2)cc1OC` (centres undefined), for which the displacement turned out to be 11%. The same measure for `CC1=NN(C(=O)c2cccc(Br)c2)C(O)(C(F)(F)F)C1` (centres undefined): 4.2%; for `COc1ccc2nc(NC(=O)c3ccc(C(C)(C)C)cc3)sc2c1`: -1.5%. The value for `COCCOC(=O)c1ccc(NC(=O)COc2ccccc2)cc1` was 42%; that for `O=C1NCC(c2ccccc2)C1C(=O)N/N=C\c1cc(Cl)ccc1O` (centres undefined) was -8.2%.

`O=C(CSc1nc2ccccc2s1)NCc1ccco1`: the displacement is -16.4%.

In the case of `CCOC(=O)c1ccc(NC(=O)c2ccc([N+](=O)[O-])s2)cc1`, the displacement was -4.6%.

Consider `O=C(Nc1cc([N+](=O)[O-])ccc1C(=O)N1CCC(Cc2ccccc2)CC1)c1ccccc1`, for which the displacement was -4.2%. The value for `CCOC(=O)N1CCN(C2CC(=O)N(c3cccc(Cl)c3)C2=O)CC1` (centres undefined) was 0.4%; that for `CCOC(=O)C(CCCCOc1ccc([N+](=O)[O-])cc1)C(=O)OCC` was 6.3%; that for `Cc1cc(NCCCCO)n2c(nc3ccccc32)c1C#N` was 25.9%. On to `COc1ccccc1NC(=O)c1ccc2ccccc2n1`, for which the displacement is -2.3%. The value for `CCOC(=O)c1c(NC(=O)c2ccc([N+](=O)[O-])cc2Cl)sc2c1CCC2` was -3.5%; that for `COc1ccccc1N1C(=O)c2cccc3c(N(C)C)ccc(c23)C1=O` was 42.1%; that for `CCOC(=O)c1[nH]cnc1C(=O)N1CCOCC1` was -1.4% and 9.1%. As for `O=C(Nc1c(O)c2ccccc2[nH]c1=O)c1ccco1`, the displacement was -6.5%.

In the case of `CC(C)OC(=O)C1C(=O)CC(C)(O)C(C(=O)OC(C)C)C1c1cccnc1` (centres undefined), the displacement came to 6%. The value for `CC(C)CC(=O)N1CCN(Cc2cccc(Cl)c2)CC1` was -17.9%. With `CC1=CCC(CN(CCCN(C)C)CC2CC=C(C)CC2)CC1` (centres undefined), the displacement is -4.9%. The value for `COc1ccc(C(=O)NN/C(C)=C\C(=O)c2ccccc2)cc1` was -5.9%; that for `O=S(=O)(c1ccc2c(c1)C(=NO)c1cc(S(=O)(=O)N3CCCC3)ccc1-2)N1CCCC1` was 14.7%. The value for `COc1ccc(-c2cc(-c3ccc(Br)cc3)nc(N)c2C#N)cc1` was 70.6%; that for `O=C(c1ccccc1)c1ccc(C(=O)N2CCOCC2)cc1` was -8.7%; that for `CCONC(=Nc1ccccc1OC)c1nonc1N` was -7.4%. Turning to `COc1cc([N+](=O)[O-])cc(/C=N/NC(=O)COc2c(Br)cc(Br)cc2Br)c1O`, the displacement turned out to be 9.4%. Consider `O=C(/C=C/c1ccc([N+](=O)[O-])cc1)Nc1ccccc1C(=O)Nc1cccc(C(=O)O)c1`, for which the displacement stood at 1.4%.

Regarding `O=C(c1ccccc1O)N1CCCc2ccccc21`, the displacement is -3.1%.

With `Cc1c(Cl)cccc1-c1ccc(/C=N/N=C2\NC(=O)CS2)o1`, the displacement is 133%. Regarding `CC(=O)CCc1oc2ccc(Cl)cc2c1-c1ccc(C)o1`, the displacement came to 7%. Turning to `O=C(Nc1ccccc1Cl)N1CCN(c2ccc(F)cc2)CC1`, the displacement was -0.4%. In the case of `Oc1ccc(Nc2nc(-c3cccs3)cs2)cc1`, the displacement is 5.5%. Regarding `Cn1c(/C=N/c2nc3ccccc3n2C)nc2ccccc21`, the displacement worked out at 3.9%. On to `CSc1ccc(S(=O)(=O)N(CC(=O)Nc2cc(C)ccc2C)c2ccc(C)cc2)cc1`, for which the displacement came to 3.7%.

Take `COc1cc(NC(=O)c2ccccc2F)cc(OC)c1`: the displacement is -16.2%. The same measure for `CCCOC(=O)c1cccc(NC(=O)c2cccnc2)c1`: -6.6%; for `CC(=O)Nc1ccccc1NC(=O)c1cccc(F)c1`: -13%; for `Oc1ccc(Br)cc1CN1CCN(Cc2c[nH]c3ccccc23)CC1`: -2.7%. With `CCOC(=O)c1c(NC(=O)c2cncc(Br)c2)sc(C)c1C`, the displacement is 15.2%. Turning to `CCOC(=O)c1c(N)sc2c1CCN(Cc1ccccc1)C2`, the displacement was -2.2%. Take `COc1ccc(NC(=O)C(=O)/C=C(/O)c2ccccc2)cc1`: the displacement was determined as 4.9%. With `COc1ccc(-c2cc(C(=O)Nc3ccccn3)c3ccccc3n2)cc1`, the displacement was 4.7%. The value for `Cc1c(C#N)c2nc3ccccc3n2c(=O)/c1=C/c1sc2ccccc2c1O` was 1.1%. The value for `CN(C)C=Nc1ccn(Cc2ccccc2)c(=O)c1C#N` was -4.1%; that for `O=C(Nc1cc(C(F)(F)F)cc(C(F)(F)F)c1)c1cc2ccccc2o1` was -1.9%; that for `O=C1/C(=C/c2c(Cl)cccc2Cl)SC(=S)N1Cc1ccco1` was 9.8%. The same measure for `COc1ccc(CN2CCN(C3CC4CCC3C4)CC2)c(OC)c1` (centres undefined): -14.8%. Regarding `Cc1ccc(C(C)C)c(OCCOc2ccc(/C=C3/SC(=S)N(C)C3=O)cc2)c1`, the displacement was 12.4%.

With `CCCCCCOc1ccc(N2C(=O)CC(N3CCN(c4ccccn4)CC3)C2=O)cc1` (centres undefined), the displacement was determined as 5.1%. With `Cc1ccc2c(c1)N(C(=O)C(C)N1C(=O)c3ccccc3C1=O)C(C)(C)c1ssc(=S)c1-2` (centres undefined), the displacement is 10.1%. The value for `Cc1ccc(N2CC(C(=O)Nc3cccc(C)c3C)CC2=O)cc1` (centres undefined) was -12.9%; that for `CC1(C)C(C=C(Cl)Cl)C1C(=O)Nc1ccc(S(N)(=O)=O)cc1` (centres undefined) was 22.3%. In the case of `CCc1ccc(NC(=O)C(=O)NCCN2CCN(C(=O)C(c3ccccc3)c3ccccc3)CC2)cc1`, the displacement turned out to be 10.5%. The value for `CCN(CC)CCN1C(=O)C(O)=C(C(=O)/C=C/c2ccccc2)C1c1ccccc1Cl` (centres undefined) was 9.2%; that for `CC(C)c1nnc(NC(=O)Nc2ccc(Cl)cc2)s1` was 2.3%; that for `Cc1ccc([N+](=O)[O-])cc1-c1ccc(-c2nc3sc4c(c3c(=O)[nH]2)CCCC4)o1` was -9.7%. Turning to `COc1ccccc1N=Cc1c(O)n(-c2ccccc2Cl)c(=O)[nH]c1=O`, the displacement is -6.6%. The value for `CCc1ccc(C2Nc3ccccc3NC3=C2C(=O)CC(c2ccc(OC)c(OC)c2)C3)cc1` (centres undefined) was -5.3%; that for `CCc1cccc(NC(=O)c2ccc(Br)o2)c1` was -11.1%; that for `COCCNC(=O)C(=O)Nc1cc(C)cc(C)c1` was 9.1%. As to `O=C(Cc1ccccc1)N/N=C/c1ccc2ccccc2c1`, the displacement is -4%. For the compound `CCOC(=O)c1c(NC(=S)NC(=O)c2ccc(OC)cc2)sc2c1CCCCC2`, the displacement is -0.1%. The value for `O=C(CSc1nnnn1-c1ccccc1)Nc1ccc(C(=O)O)cc1` was -23.7%; that for `CC(C)(C)NC(=O)c1ccc(-c2ccc(Br)cc2)o1` was 9.9%; that for `COc1ccc(Cl)cc1NC(=O)c1cc2cc([N+](=O)[O-])ccc2oc1=O` was 12.8%. For the compound `CC1CCN(c2ccc(C=C3C(=O)c4ccccc4C3=O)cc2[N+](=O)[O-])CC1`, the displacement was -1.4%. In the case of `Cc1ccc(N(CC(O)Cn2c3ccccc3c3ccccc32)S(C)(=O)=O)cc1` (centres undefined), the displacement came out at 5.5%. The same measure for `Cc1ccc(Cn2c(-c3nonc3N)nc3ccccc32)cc1`: 15.1%. For the compound `Cc1ccc(NC(=O)/C(=C/c2ccc(N(C)C)cc2)NC(=O)c2ccccc2)cc1`, the displacement was -3.9%. For `CCOc1ccc(/C=C2\SC(=NCc3ccccc3)N(Cc3ccccc3)C2=O)cc1`, the displacement was 5.2%. The value for `CCC(=Nc1ccccc1OC)C1=C(O)CC(C)(C)CC1=O` was 6.6%; that for `O=C(O)CN1C(=O)c2cccc3c(I)cc(Br)c1c23` was 12%. The value for `CCc1c(C#N)c(N)nc(SCC(=O)c2cc3ccccc3oc2=O)c1C#N` was 5.7%; that for `COC(=O)C1=C(O)/C(=C\c2cccc(Cl)c2)N=C1C` was -3.2%. The same measure for `CCOCCOC(=O)c1ccc(NC(=O)c2ccc(C(=O)C(=O)c3ccccc3)cc2)cc1`: -0.6%; for `COC(=O)c1c(NC(=O)/C=C/c2ccco2)sc(C)c1C`: -12.6%; for `Cc1ccc2nc(-c3ccc(NC(=S)NC(=O)c4ccco4)cc3)sc2c1`: 44.4%. As for `N/C(=N\OS(=O)(=O)c1ccc([N+](=O)[O-])cc1)c1ccccn1`, the displacement was determined as 2.1%.

Turning to `Cc1ccc(S(=O)(=O)NCc2ccncc2)cc1[N+](=O)[O-]`, the displacement is -3.8%. The value for `CCSc1nnc(NC(=O)/C=C/c2ccc(F)cc2)s1` was -4.2%. Consider `Cc1cccc(N=C2NC(=O)/C(=C\c3cccs3)S2)c1C`, for which the displacement is -3.6%. On to `COc1ccc(CN2CCN(Cc3ccccc3[N+](=O)[O-])CC2)c(OC)c1`, for which the displacement was -77.9%. Turning to `Cc1ccccc1NC(=O)c1c(NC(=O)c2ccc([N+](=O)[O-])cc2)sc2c1CCCC2`, the displacement was -0.4%. `COc1cc([N+](=O)[O-])ccc1-c1ccc(/C=C2\C(=O)NC(=O)N(c3ccc(C)c(C)c3)C2=O)o1`: the displacement was 75.5%. As for `Clc1ccccc1Cc1noc(-c2ccc(Br)cc2)n1`, the displacement is 8.2%.

As for `CN(Cc1ccccc1)C(NC(=O)c1ccccc1[N+](=O)[O-])C(Cl)(Cl)Cl` (centres undefined), the displacement was -7.5%. The value for `COc1ccccc1C(=O)N1CCN(S(=O)(=O)c2ccc(Cl)cc2)CC1` was -15.8%.
